This is one part of the list.
T1: UNK ZnF1-3 (human, UniProt Q9C0B0 31-174)
T1 sequence: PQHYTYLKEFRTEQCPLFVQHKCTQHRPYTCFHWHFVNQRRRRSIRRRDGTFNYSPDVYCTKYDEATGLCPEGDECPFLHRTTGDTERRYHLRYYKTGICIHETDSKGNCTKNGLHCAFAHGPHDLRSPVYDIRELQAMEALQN

B1: 36558831_36558951_1026_CDS_ENSG00000116863_ENST00000373178|human|control|control (ssRNA)
RNA: GGGAGUUCUACAGUCCGACGAUCCAGGAUGUCUGUCUCCUCGUAGCCUUCACAGCUUUGCUGCCAGCUCUCUGGCACCUGAUCCAUCCCAUAGUAGGCACCAGCAAUGGCCCCAGCCAUGGUGGCAAUGGUGUCUGUGUCCCCCAACAGAGGAUUGAGCAUCA
B2: chr1:220276048:220276049:+_ENSG00000067704_ENST00000302637|hu_hu|hu_hu_hu_mus_True|18_48 (ssRNA)
RNA: GGGAGUUCUACAGUCCGACGAUCGCAAAUUGCCUGGUUGGCGGGAAUUGUCCAAGGCUGGGUGGUCCAAACUAAAACGCUAACAGGAGAUGAACCAUCUGUAAGAGACUCCAACUUUGGAGAAGGCCUCAGGAGGGGGAAUCUCAACAGAGGAUUGAGCAUCA
B3: 58754496_58754698_3163_CDS_ENSMUSG00000032340_ENSMUST00000068664|mouse|control|control (ssRNA)
RNA: GGGAGUUCUACAGUCCGACGAUCGCUUGACCUUCUGCCUUUGGUCACCAUCACAGAGAACUCAUAGAGCGUAUUUGGCUUUAAACCAGUAACCAAAUAGCUUAACGUCGUUGCAUUUGCAUUCUUGUACUUCGUGUUUGCUGGCAACAGAGGAUUGAGCAUCA
B4: chr5:118832277:118832278:+_ENSG00000133835_ENST00000256216|hu_hu|FALSE|FALSE (ssRNA)
RNA: GGGAGUUCUACAGUCCGACGAUCUGUUGCUGUAGACGUUGCACGACUAGUAUGAUUUGCUGAAACUCCUCCUUCUGAAUCUAUUUUACUCAGAACUUCAAUUAUACUGCCAGUUGAUUCUUGGAUACUCUGAGGCUUGCUGGCCAACAGAGGAUUGAGCAUCA
B5: chr1:16453270:16453271:-_ENSMUSG00000025920_ENSMUST00000027052|mus_hu|FALSE|FALSE (ssRNA)
RNA: GGGAGUUCUACAGUCCGACGAUCUUAUACUGCUGCCUUCGGAUUCCCAUGUCUGCUCACCAAGACUCAGCUGCACUGAGAACAUCUGAUUUAUUUGAAGCAUGUUAAGACAAUAUUGACCAAACUGCUGUAUCCCUCACGGCUCAACAGAGGAUUGAGCAUCA
B6: chrX:117107323:117107324:-_ENSG00000003096_ENST00000371878|hu_mus|FALSE|FALSE (ssRNA)
RNA: GGGAGUUCUACAGUCCGACGAUCUUUGAGCUGCAACAGUACAAAUGGGAUAUAAACCUCAGCAUAGCCUUAGGCCACAGCUAAUAGAGAUCAGUGACUAAAUUCAGCAGCCCGCUUUCCUCCUGUGAAAGCUCUGGCCACACACAACAGAGGAUUGAGCAUCA
B7: chr11:77336104:77336105:-_ENSG00000074201_ENST00000525064|hu_mus|hu_hu_hu_mus_False|8_48 (ssRNA)
RNA: GGGAGUUCUACAGUCCGACGAUCCUCACACAUUGCUGUGAACAUCGCCUCCAAUGCUGACUUAUCACUGGGCACAAAUCGAAAUUCAGUAAUAGGUUCAACAUCAUCAUUGUCUUCCUCAUCUUCAUCAUCAGCAAGUUCUUUCAACAGAGGAUUGAGCAUCA
B8: chr11:64571133:64571134:-_ENSG00000133895_ENST00000312049|hu_hu|motif|central (ssRNA)
RNA: GGGAGUUCUACAGUCCGACGAUCCUGAAAAAUAAAUCUAUGUACAAAACAGGAAGAGAUCAGGCUCUUGUCACCCACUCCGGACCCUCUGCAGAUUUCCUCCGGGAUGCUCCGAGAUGGGCUGGACCUCUGGGAGGUUCCCAGCAACAGAGGAUUGAGCAUCA
B9: chr2:179515052:179515053:+_ENSMUSG00000000305_ENSMUST00000000314|mus_hu|mus_mus_mus_hu_False|18_88 (ssRNA)
RNA: GGGAGUUCUACAGUCCGACGAUCGCUGUCCCAUGCAGUCACCGUGAAGGCCACCUGCUCGGAGGGGACCUGCAGCUCCCGGGUGGCGAAGACUGUCCCAUCUGCCCCAACUUUGAAGUCCAAGCUGUUGGUCUCAUAUUGUGUCAACAGAGGAUUGAGCAUCA
B10: 64946643_64954203_516_3pUTR_ENSG00000113597_ENST00000231526|human|control|control (ssRNA)
RNA: GGGAGUUCUACAGUCCGACGAUCUUCAUCAGUCUCUGCAUUGUAAAAUUUGGUUUUCACAUCCAAUGGUUUGAGAACCUGAAAUUUGAAGAAUUUUCUGAAAUACAUUUUUUCUCCAGCCUGAGUUGUAUAACUCACAGCACACAACAGAGGAUUGAGCAUCA
B11: chr1:76259871:76259872:+_ENSG00000137955_ENST00000319942|hu_hu|motif|central (ssRNA)
RNA: GGGAGUUCUACAGUCCGACGAUCAUCCACCAUAUCUCCUGGCCUGUCUGCAAAUCCCCCCGUUUCUUCAUCUUGACAUGCGGAAAUGAAAUUACGCAGUUUCUCUCUAUCAAUCCAAUGAAGUCUUCCAAUUAUCUUUAGGGACAACAGAGGAUUGAGCAUCA
B12: 119781160_119781280_302_CDS_ENSMUSG00000034390_ENSMUST00000166750|mouse|control|control (ssRNA)
RNA: GGGAGUUCUACAGUCCGACGAUCGUCGGCCAGCGUUAGGUGGUGCGGCUCCCAGCGCCUCAGGAAUUUGGAGGUGAGGAUCUUGCUGAGAAAGGUCCGAGGGUGCCGGAUGACACAGACCUGAAUGUCGCCCUCCUGCAGCAGCAACAGAGGAUUGAGCAUCA
B13: chr11:22899103:22899104:+_ENSMUSG00000007739_ENSMUST00000173867|mus_hu|motif|central (ssRNA)
RNA: GGGAGUUCUACAGUCCGACGAUCUAAAAUAUAGGCUCUCUCUUCUCGCAGCACUCGGUCCAUCUGGGCAUAGUCAGAAACCACGGUUUGAUUAUCCAUGUCUGUUUUGGGAGCAGAUAAGCAAAACUGAAUAAGCCCAAUCUUCAACAGAGGAUUGAGCAUCA
B14: chr5:71490152:71490153:+_ENSG00000131711_ENST00000296755|hu_hu|FALSE|FALSE (ssRNA)
RNA: GGGAGUUCUACAGUCCGACGAUCUACAUUGAGAAAUACAACUCCUAAGUCAGGGGAGAUGAGGUUUUUCAUCCAGUCACUAUUUGUGGUGGAGCCCUGGGACUGUUCUUCCUCGAGCUCUGCAAUUUUCCGCUGUAACAUGCUCAACAGAGGAUUGAGCAUCA
B15: chrX:147244336:147244337:-_ENSMUSG00000025268_ENSMUST00000112699|mus_hu|FALSE|FALSE (ssRNA)
RNA: GGGAGUUCUACAGUCCGACGAUCGCUGAGAAGAAUGUACAAGUGGUCAUUCUUAUCAAUUUCCUUCAAUUGAAUCCCAAAUACCUUCUCCAAGGAAUAGCCUGCUCGUUCAAUGAUUUCGGGGUACACAUCAGUGUAUUCUUUCAACAGAGGAUUGAGCAUCA
B16: chr17:60770872:60770873:+_ENSG00000011028_ENST00000303375|hu_hu|hu_hu_hu_mus_True|78_108 (ssRNA)
RNA: GGGAGUUCUACAGUCCGACGAUCUCUCUUUUCUUUUAAAAAAAAAGACAAACAAUAAUAAUGGCACUCGAGAAUCAAGAACUACAAUAGAGGGUCCGCUUUGAGUUUUUGUUCACAUCGUCCUGCACUGGGACACGGGGACUGCAACAGAGGAUUGAGCAUCA
B17: chrX:76855959:76855960:-_ENSG00000085224_ENST00000373344|hu_hu|motif|central (ssRNA)
RNA: GGGAGUUCUACAGUCCGACGAUCUGAGGCUAUAAAUUCAUCCAUACUGUCUUCAUCAAAAUAACCCUUAUUUUCUUUGCGGAUGUAGUCUAGCUGCAAACACCAAGGAUGAGUCCAUAUUCUACUUAACAUCUGAAAAUCUUGCAACAGAGGAUUGAGCAUCA
B18: chr2:230653580:230653581:-_ENSG00000153827_ENST00000389045|hu_mus|motif|central (ssRNA)
RNA: GGGAGUUCUACAGUCCGACGAUCAGUGAGCCAUGUUGGGAUGUUUCCUGUCAUGAUUACUAGAGGGUCUUGAAGCUGCCGGUUUGCUUUUGCUGUUAAUUUACUGUUAAUAAAUUCACUAGUUGGAAUAAUCUCCUUGCACAUCAACAGAGGAUUGAGCAUCA
B19: chr5:135513207:135513208:+_ENSG00000113658_ENST00000545279|hu_mus|FALSE|FALSE (ssRNA)
RNA: GGGAGUUCUACAGUCCGACGAUCCCAUGUCAGCUCACAGCAUCUGUACUGGAAAUUCCUCUAAAAUUAAAACAAGUCCACUAAAAAUAUAGUUGAAAGAAUACUUCUGCACUAUGAAACAGAAGAAAUGGGGUUCAGCGGAGACAACAGAGGAUUGAGCAUCA
B20: chr4:151706827:151706828:+_ENSMUSG00000028936_ENSMUST00000139685|mus_mus|FALSE|FALSE (ssRNA)
RNA: GGGAGUUCUACAGUCCGACGAUCCACUGUGUCUCAAGCCCUCCUCGAGACAGGCACCAGAUAUAACCAACCACCAGCUCUAAGACUCGGGCUGGCCGGAGCCCACCACCCAGCCUCUCGUCUACUUGCUCUGUCAGAUGCAGCCAACAGAGGAUUGAGCAUCA
B21: chr12:56499883:56499884:+_ENSMUSG00000021024_ENSMUST00000021412|mus_mus|motif|central (ssRNA)
RNA: GGGAGUUCUACAGUCCGACGAUCGAUAGUAAUGUGACGGUCAAAACCGGCGCUGGAACCCCGGGACAUGGCGUUCCUGCGGUUUUAAACACAGUCUGCACCCCGUAGCACACACACCAGGGACCCAAGCCCCCUCCCGGAAGUCAACAGAGGAUUGAGCAUCA
B22: chr1:186330019:186330020:-_ENSG00000047410_ENST00000367478|hu_hu|FALSE|FALSE (ssRNA)
RNA: GGGAGUUCUACAGUCCGACGAUCCUCAAGCAUUUCUUUUUCCAUUUGAUCUUUGGAUUGCUCCACCUCUAGAAGAUGAUCUUGUAUUGCUUUGUUGGCUUCACCAGCUUCUUUCAAAAGUUUGUGUAGUUCCUCUACUGCCCGCAACAGAGGAUUGAGCAUCA

molecular target: T1, UNK ZnF1-3; assay: nsRBNS (natural sequence RNA bind-n-seq); RBNS binding buffer (assumed for nsRBNS): 25 mM Tris pH 7.5, 150 mM KCl, 3 mM MgCl2, 0.01% Triton X-100, 500 ug/ml BSA, 20 U/ml SUPERase-In, 4 C; UNK is unkempt and MSI1 is Musashi-1; names of the RNAs are library labels; protein concentration not given here; high values mean tight binding

Row | Binder | binding signal [enrichment R]
1 | B1 | 0.677
2 | B2 | 1.79
3 | B3 | 0.653
4 | B4 | 0.618
5 | B5 | 1.32
6 | B6 | 0.959
7 | B7 | 0.906
8 | B8 | 0.877
9 | B9 | 0.883
10 | B10 | 0.553
11 | B11 | 0.779
12 | B12 | 0.665
13 | B13 | 1.06
14 | B14 | 0.718
15 | B15 | 0.564
16 | B16 | 1.52
17 | B17 | 1.05
18 | B18 | 0.772
19 | B19 | 2.28
20 | B20 | 1.22
21 | B21 | 0.579
22 | B22 | 0.27

Reference: article PMC12136788
